Measurements: the supplement of paper PMC3334620
Whole data set: some 33,000 sequences, median “E-score (-0.5 to 0.5)” near -0.054, cut for the highest 2% near 0.35. Some of the results follow.

target: T1, Stb5 (UniProt P38699); assay: PBM E-score (8-mer binding enrichment) (E-score (-0.5 to 0.5)); higher = stronger / more preferred TF binding; most listed sequences are background and not binding sites; settings: protein concentration: 200 nM; construct: GST-full length
T1 sequence: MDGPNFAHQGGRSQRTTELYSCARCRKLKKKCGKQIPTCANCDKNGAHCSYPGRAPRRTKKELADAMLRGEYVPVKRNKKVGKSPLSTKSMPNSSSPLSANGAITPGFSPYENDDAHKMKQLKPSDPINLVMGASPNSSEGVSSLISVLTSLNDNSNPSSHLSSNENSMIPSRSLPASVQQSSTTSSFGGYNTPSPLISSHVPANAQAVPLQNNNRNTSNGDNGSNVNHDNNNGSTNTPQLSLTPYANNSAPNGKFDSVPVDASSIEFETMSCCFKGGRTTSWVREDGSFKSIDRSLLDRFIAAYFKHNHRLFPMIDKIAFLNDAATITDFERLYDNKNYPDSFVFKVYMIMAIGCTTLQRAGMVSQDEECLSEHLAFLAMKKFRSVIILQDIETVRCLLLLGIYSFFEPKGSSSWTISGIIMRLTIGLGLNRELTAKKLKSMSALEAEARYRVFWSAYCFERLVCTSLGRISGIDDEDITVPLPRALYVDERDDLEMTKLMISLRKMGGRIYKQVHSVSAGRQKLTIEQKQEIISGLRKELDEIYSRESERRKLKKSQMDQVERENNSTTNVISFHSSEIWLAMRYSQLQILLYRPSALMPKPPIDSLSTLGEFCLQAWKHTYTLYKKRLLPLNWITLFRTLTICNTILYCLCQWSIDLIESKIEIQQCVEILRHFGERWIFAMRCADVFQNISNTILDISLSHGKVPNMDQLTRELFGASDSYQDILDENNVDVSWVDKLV
Summary of the method: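 PURExpress in vitro transcription/translation supplied GST-tagged yeast transcription factors, either full-length or DNA-binding domain. Applied at about 100-200 nM to universal all-10-mer Agilent arrays double-stranded by primer extension, the bound protein was detected with fluorescent anti-GST. E-scores, modified Wilcoxon-Mann-Whitney statistics, were given by the Universal PBM Analysis Suite to ungapped eight-base words pooled with their reverse complements after masliner normalisation.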

Row | Sequence | PBM E-score
1 | ATTAGTAG | -0.165
2 | GACTATCC | 0.0813
3 | CAGAGACA | -0.213
4 | AACAACTT | -0.0677
5 | GCCACGGA | 0.173
6 | CTCCCATC | -0.00999
7 | ACACCTCT | -0.134
8 | GAATTAGA | -0.0146
9 | ACACTTTG | -0.108
10 | ACAACTTC | -0.199
11 | CGGCCTCA | 0.363
12 | AGCTCGTC | -0.113
13 | TTATGAAA | 0.119
14 | GCTGCAAA | -0.0972
15 | CCGAGGCC | 0.0761
16 | ATACTTCC | 0.166
17 | CAACTGTC | -0.096
18 | GAATACTC | -0.0176
19 | ACGTGGGG | -0.101
20 | ATACGAGA | -0.271
21 | GACTGGGC | -0.113
22 | GTCGATGA | -0.211
23 | GCGAGGTA | -0.0571
24 | CGATCTGC | 0.156
25 | CGTTGAAG | -0.204

Row | Sequence | PBM E-score
26 | ACAGGGGA | -0.11
27 | AGTCAGCA | -0.17
28 | TACGTGGA | 0.0792
29 | CCTTGTCC | -0.11
30 | CTCTGCTC | -0.31
31 | AGCTTAAT | -0.00951
32 | CCTCTAGA | -0.183
33 | ATACTTGC | -0.0909
34 | GCGAGTAC | -0.0625
35 | AGGCTTTG | -0.215
36 | CCGTGACA | 0.168
37 | CGGGTGGC | 0.0399
38 | GATCTGTA | -0.143
39 | GTATCTGA | -0.188
40 | AGGTCATG | -0.219
41 | AGGTCAGA | -0.142
42 | TTAGTCAA | -0.163
43 | ATGCTCGG | 0.0371
44 | CTCCCGGC | 0.166
45 | AAGTGGAT | -0.0158
46 | AAACGTCT | -0.292
47 | CGTTGTCA | -0.0225
48 | AAACGGAA | 0.182
49 | GCGGAGGA | 0.213
50 | CCTATGGA | -0.0247

Row | Sequence | PBM E-score
51 | ACGCGTGG | -0.055
52 | CAACTAAC | 0.184
53 | CCAGACGC | -0.137
54 | CCTGGTGC | 0.0141
55 | TGCCCAAA | -0.204
56 | AACCTAAC | 0.00083
57 | AAGGTGGG | -0.198
58 | GGCATTTA | 0.29
59 | CCAGATAA | 0.0381
60 | ACCCTGCG | -0.165
61 | AAGTGCCT | -0.29
62 | ATGAGCTG | -0.181
63 | AGCACTAC | -0.145
64 | ATGTGTAC | -0.257
65 | CAAGCAGA | -0.214
66 | ATAGCGCC | 0.361
67 | ATTAGCTA | -0.323
68 | CAACCGGC | 0.303
69 | ATTCGCCC | 0.125
70 | AAATGAAG | -0.0745
71 | ACAAACCA | -0.256
72 | AACGCGCA | -0.242
73 | ACTGCTGA | -0.245
74 | GCCATCTA | -0.119
75 | CCTGTAGA | -0.172

Row | Sequence | PBM E-score
76 | AGAATAAG | 0.0311
77 | AGATCAAA | -0.058
78 | ATACCCTG | -0.0145
79 | CTGAGTAA | -0.22
80 | ACTCCACG | -0.0714
81 | ATAATAAC | 0.185
82 | CTAAGCCA | -0.252
83 | AAAAAATT | -0.124
84 | AGTCCCAG | -0.293
85 | GGGCCGCA | 0.232
86 | CCGTTAAC | 0.281
87 | CTCCTTGA | 0.0227
88 | AGTTGGAC | -0.17
89 | ACGAGTAT | -0.129
90 | GGCAATCA | -0.0494
91 | CATGTTGG | 0.0872
92 | ACCAAGCT | -0.228
93 | CACCAGGG | -0.284
94 | AAGCGTAC | -0.289
95 | AATCTATA | 0.027
96 | ATAGGATG | -0.144
97 | AGCGAGGC | -0.164
98 | CGGGGTGA | 0.432
99 | CACGTACA | -0.211
100 | AGTCCGCC | 0.42

Row | Sequence | PBM E-score
101 | ATAGTAAG | -0.138
102 | GACTTCGA | -0.104
103 | GCGAGTTA | -0.111
104 | CAGCTTCG | -0.0878
105 | GATTTAGA | 0.0334
106 | CGCAACCG | 0.181
107 | AAGCTTAC | -0.155
108 | TCGGTGAA | 0.269
109 | TAACATGA | -0.0944
110 | CGCCCTGC | 0.0443
111 | GAGGGAGA | -0.29
112 | AAAACCTC | 0.0839
113 | CAGTGCTC | -0.266
114 | ATTAAGCA | -0.0755
115 | ACTGTGCA | -0.187
116 | CCTTTTTA | -0.015
117 | CGAGGTTA | 0.0887
118 | TGAGGCCA | -0.344
119 | CGTAAATC | 0.0199
120 | AGCCTACG | -0.216
121 | CATTGGAC | -0.19
122 | CATCCCTC | -0.122
123 | ATCATTGG | -0.252
124 | TAATTAAA | -0.168
125 | GGAGTCCA | 0.0404

Row | Sequence | PBM E-score
126 | TAAATGCA | -0.18
127 | AGTCAGAG | -0.105
128 | TAATCGCA | -0.0155
129 | AGCGTTGC | -0.065
130 | AAGAGAAG | -0.293
131 | CAACGGCG | 0.272
132 | AGTGTTGC | -0.283
133 | TAGAACGA | -0.233
134 | ACTCACCC | 0.0247
135 | ACTCCGCC | 0.384
136 | ACGACAGG | -0.0875
137 | AGGTTCGC | -0.245
138 | AATATGTA | 0.043
139 | CAAGTGAA | -0.152
140 | TGAACGAA | -0.234
141 | ATACACCC | 0.254
142 | GGACCACA | 0.0639
143 | CGTTTTAG | -0.0485
144 | ACGAAGTA | -0.0966
145 | AAAGTGTT | -0.0765
146 | GCTCAGGA | -0.206
147 | GGACTGTA | 0.0186
148 | ACATCGCT | -0.221
149 | CGGCAAAC | 0.113
150 | ACTCGGGG | 0.185

Row | Sequence | PBM E-score
151 | AGGTTCCA | -0.166
152 | AGGCAGAT | -0.188
153 | CCTCCAGA | -0.0883
154 | AATGCGGT | 0.208
155 | CTCCCATA | -0.103
156 | ATCTCTTG | -0.16
157 | GAGGGAAA | -0.297
158 | GCTACGCC | 0.0615
159 | AGGGCACT | -0.3
160 | CCGTAACC | 0.246
161 | ATTGCAGA | -0.201
162 | ACAGCCAC | -0.136
163 | CACCCTGG | -0.351
164 | CCTCATGC | -0.138
165 | ATCGTCCG | 0.206
166 | AAATTCAT | -0.18
167 | CACCCGTA | -0.0744
168 | ACTTCATG | 0.0333
169 | AACAGTTA | 0.101
170 | CCGCGAAC | 0.238
171 | AGAGGAGC | -0.189
172 | ACGCGCCG | 0.166
